Data: patent publication US20230322928A1, “TREATMENT METHODS USING CTLA-4 AND PD-1 BISPECIFIC ANTIBODIES” (MedImmune, LLC, priority 2022, published 2023)

Tests used:
[1] = test system: CD4+ T cell
[2] = Phase 1 study: adverse events in NSCLC cohorts; type: in vivo
[3] = test system: T cell clones; experiment: Expanded T cell clones by T cell receptor sequencing (TCRseq); conditions: 750 mg and 1500 mg MEDI5752 in combination with chemotherapy
[4] = Phase 1 study: adverse events in RCC cohorts; type: in vivo
[5] = test system: advanced clear-cell RCC; experiment: Phase 1 study: antitumor activity in RCC expansion cohorts; type: in vivo, human
Description: (§1) The primary endpoint was OR, which is commonly used in oncology studies evaluating subjects with advanced solid tumors, including RCC or NSCLC. The primary objective for the squamous NSCLC expansion cohort was to evaluate the safety and tolerability of MEDI5752 in subjects with advanced solid tumors when combined with chemotherapy.

[6] = test system: nonsquamous NSCLC; experiment: Phase 1 study: antitumor activity in non-squamous NSCLC expansion cohorts (with carboplatin/pemetrexed); type: in vivo, human
Description: as §1
PD-L1 status will be assessed in subjects who have provided archival or fresh tumor biopsies. For the NSCLC expansion cohorts, PD-L1 positive is defined as baseline PD-L1 expression with tumor cell ≥1% and PD-L1 negative is defined as baseline PD-L1 expression with tumor cell <1%.

[7] = test system: advanced solid tumors; experiment: Phase 1 study: antitumor activity of MEDI5752 monotherapy, dose escalation and MTD/OBD cohorts (RECIST v1.1); type: in vivo, human
[8] = 500 mg with Carboplatin and Pemetrexed, N = 33
[9] = 750 mg with Carboplatin and Pemetrexed, N = 72
[10] = 750 mg with Carboplatin and Taxane, N = 18
[11] = 1500 mg with Carboplatin and Pemetrexed, N = 20
[12] = First line RCC, MEDI5752 500 mg
[13] = First line RCC, MEDI5752 500 mg (n = 33)
[14] = First line RCC, MEDI5752 750 mg
[15] = First line RCC, MEDI5752 750 mg (n = 32)
[16] = First line Non-squamous NSCLC, MEDI5752 1500 mg + carboplatin/pemetrexed (n = 20)
[17] = 500 mg during dose escalation, 5 subjects
[18] = 750 mg during dose escalation, 8 subjects
[19] = First line Non-squamous NSCLC, Pembrolizumab + carboplatin/pemetrexed (n = 21)

## MEDI5752: anti-PD-1/CTLA-4 bispecific antibody; light chain SEQ ID NO:1 and heavy chain SEQ ID NO:2 (PD-1), light chain SEQ ID NO:3 and heavy chain SEQ ID NO:4 (CTLA-4)
[1]; 750 mg and 1500 mg MEDI5752 in combination with chemotherapy
  CD4+ T cell proliferation at cycle 1 day 8, versus pembrolizumab in combination with chemotherapy: higher increase
[1]; Monotherapy setting
  CD4+ T cell activation: dose-dependent increase
[1]; Monotherapy, plateauing at 500/750 mg and above
  CD4+ T cell proliferation: dose-dependent increase
[2]; Non-squamous NSCLC randomised cohort, MEDI5752 1500 mg + CTx (n = 20)
  Deaths due to TRAE (related to MEDI5752, pembrolizumab, and/or CTx): 0 n
[2]; Non-squamous NSCLC, MEDI5752 500 mg + CTx, one patient
  Cause of death due to TRAE: ^One patient treated with MEDI5752 500 mg + CTx died due to febrile neutropenia.
[2]; Non-squamous NSCLC, MEDI5752 750 mg + CTx, four patients
  Cause of death due to TRAE: ‡One patient treated with MEDI5752 750 mg + CTx died due to pneumonitis, two due to febrile neutropenia, and one due to septic shock.
[2]; Squamous NSCLC, MEDI5752 750 mg + CTx, one patient
  Cause of death due to TRAE: ^^One patient treated with MEDI5752 750 mg + CTx died due to sepsis of respiratory origin.
[3]
  Newly expanded T cell clones at cycle 2, versus pembrolizumab in combination with chemotherapy: higher proportion
[4]; Dose Expansion 500 mg (n = 33)
  Deaths due to TRAE: 0 n
[4]; Dose Expansion 750 mg (n = 32)
  Deaths due to TRAE: 0 n
[8]
  Subjects with at least one MEDI5752-related AE (All Grades): 72.7%
  Subjects with at least one MEDI5752-related AE Leading to Discontinuation: 9.1%
  Subjects with at least one MEDI5752-related Grade 3 or 4 AE: 18.2%
  Subjects with at least one MEDI5752-related SAE: 18.2%
[9]
  Subjects with at least one MEDI5752-related AE (All Grades): 80.6%
  Subjects with at least one MEDI5752-related AE Leading to Discontinuation: 16.7%
  Subjects with at least one MEDI5752-related Grade 3 or 4 AE: 36.1%
  Subjects with at least one MEDI5752-related SAE: 23.6%
[10]
  Subjects with at least one MEDI5752-related AE (All Grades): 77.8%
  Subjects with at least one MEDI5752-related AE Leading to Discontinuation: 11.1%
  Subjects with at least one MEDI5752-related Grade 3 or 4 AE: 44.4%
  Subjects with at least one MEDI5752-related SAE: 16.7%
[11]
  Subjects with at least one MEDI5752-related AE (All Grades): 100%
  Subjects with at least one MEDI5752-related AE Leading to Discontinuation: 75%
  Subjects with at least one MEDI5752-related Grade 3 or 4 AE: 70%
  Subjects with at least one MEDI5752-related SAE: 55%
2500 mg monotherapy cohort, one subject
  Dose-limiting toxicities (DLTs): Grade 3 maculopapular rash
Monotherapy 225 mg, N = 10
  Subjects with at least one MEDI5752-related AE (All Grades): 70%
  Subjects with at least one MEDI5752-related AE Leading to Discontinuation: 0
  Subjects with at least one MEDI5752-related Grade 3 or 4 AE: 10%
  Subjects with at least one MEDI5752-related SAE: 20%
Monotherapy 500 mg, N = 38
  Subjects with at least one MEDI5752-related AE (All Grades): 86.8%
  Subjects with at least one MEDI5752-related AE Leading to Discontinuation: 26.3%
  Subjects with at least one MEDI5752-related Grade 3 or 4 AE: 31.6%
  Subjects with at least one MEDI5752-related SAE: 18.4%
Monotherapy 750 mg, N = 40
  Subjects with at least one MEDI5752-related AE (All Grades): 95%
  Subjects with at least one MEDI5752-related AE Leading to Discontinuation: 40%
  Subjects with at least one MEDI5752-related Grade 3 or 4 AE: 55%
  Subjects with at least one MEDI5752-related SAE: 45%
Monotherapy 1500 mg, N = 39
  Subjects with at least one MEDI5752-related AE (All Grades): 94.9%
  Subjects with at least one MEDI5752-related AE Leading to Discontinuation: 56.4%
  Subjects with at least one MEDI5752-related Grade 3 or 4 AE: 59%
  Subjects with at least one MEDI5752-related SAE: 43.6%
Monotherapy, All, N = 178
  Subjects with at least one MEDI5752-related AE (All Grades): 89.3%
  Subjects with at least one MEDI5752-related AE Leading to Discontinuation: 38.8%
  Subjects with at least one MEDI5752-related Grade 3 or 4 AE: 46.1%
  Subjects with at least one MEDI5752-related SAE: 34.8%
One due to diabetic ketoacidosis and hyperthyroidism, one due to myocardial infarction
  Deaths judged to be related to MEDI5752 treatment: Two deaths
[5]; FIG. 13
  Durability of responses, first-line RCC cohort: durable
[5]; First line RCC (with clear cell component), MEDI5752 500 mg (n = 33)
  ORR: 15 (45.5) n (%)
[5]; First line RCC (with clear cell component), MEDI5752 750 mg (n = 32)
  ORR: 15 (46.9) n (%)
[5]; [12]
  CRs, IMDC: Favorable: 2 (16.7) n (%)
  CRs, IMDC: Intermediate/poor: 0
[5]; [13]
  CRs: 2 (6.1) n (%)
  Disease control rate: 23 (69.7) n (%)
[5]; [14]
  CRs, IMDC: Favorable: 1 (12.5) n (%)
  CRs, IMDC: Intermediate/poor: 2 (8.3) n (%)
[5]; [15]
  CRs: 3 (9.4) n (%)
  Disease control rate: 28 (87.5) n (%)
[5]; RCC expansion cohort RCC-C1, MEDI5752 1500 mg (10/26)
  ORR: 38.5%
[5]; RCC expansion cohort RCC-C1, MEDI5752 1500 mg, 26 subjects
  CRs: 2
[5]; RCC-C1, MEDI5752 1500 mg (7/12)
  ORR in the first-line RCC subjects: 58.3%
[6]; First line Non-squamous NSCLC, MEDI5752 1500 mg + carboplatin/pemetrexed
  Median PFS, PD-L1 <1%: 13.4 months
[6]; [16]
  Disease control rate: 17 (85.0) n (%)
  Median DOR (95% CI): 20.5 (4.1-NE) months
  Median OS: 25.3 months
  Median PFS: 15.1 months
  ORR: 10 (50.0) n (%)
[6]; NSCLC-C1R, MEDI5752 1500 mg+carboplatin/pemetrexed arm (10/20)
  ORR: 50.0%
[6]; NSCLC-C2 non-squamous, MEDI5752 500 mg+carboplatin/pemetrexed (11/32)
  Preliminary response of CR+PR+unconfirmed PR: 34.4%
[6]; NSCLC-C2 non-squamous, MEDI5752 500 mg+carboplatin/pemetrexed, response-evaluable (8/32)
  ORR: 25%
[6]; NSCLC-C2 non-squamous, MEDI5752 750 mg+carboplatin/pemetrexed (24/48)
  ORR, PD-L1 <1% subgroup: 50%
[6]; NSCLC-C2 non-squamous, MEDI5752 750 mg+carboplatin/pemetrexed, first 66 subjects, response-evaluable (30/66)
  ORR: 45.5%
[7]; [17]
  Subjects with best overall response of partial response (PR): 2 subjects
  Subjects with progressive disease (PD): 1 subject
[7]; [18]
  Subjects with BOR of SD: 4 subjects
  Subjects with PD: 3
[7]; MEDI5752 monotherapy (FIG. 9)
  Median duration of response: 17.5 months
[7]; Monotherapy across a range of MEDI5752 doses (FIG. 10)
  Response in diverse IO-naïve tumors: durable response
[7]; Monotherapy, dose-escalation and MTD/OBD cohorts, regardless of dose, 86 subjects
  Complete response (CR), subjects: 1
[7]; Monotherapy, dose-escalation and MTD/OBD cohorts, regardless of dose, response evaluable (17/86)
  Overall objective response rate (ORR) per RECIST v1.1: 19.8%

## Pembrolizumab [reference compound]
[2]; Non-squamous NSCLC, pembrolizumab + CTx, one patient
  Cause of death due to TRAE: †One patient treated with pembrolizumab + CTx died due to febrile neutropenia.
[6]; First line Non-squamous NSCLC, Pembrolizumab + carboplatin/pemetrexed
  Median PFS, PD-L1 <1%: 9 months
[6]; [19]
  Disease control rate: 20 (95.2) n (%)
  Median DOR (95% CI): 9.9 (2.8-NE) months
  Median OS: 16.5 months
  Median PFS: 8.9 months
  ORR: 10 (47.6) n (%)
[6]; NSCLC-C1R, pembrolizumab+carboplatin/pemetrexed arm (10/21)
  ORR: 47.6%

Like-named read-outs stand apart in the source and are kept apart here.
